# The other results are listed elsewhere or left out.
# Legend:
# Assay in all cases: glycan array binding signal (z-score within array); higher = stronger binding
# Conditions in all cases: glycan notation: IUPAC condensed, linker removed
# [1] = target: GlcNAc(a1-4)Gal(b1-3)GlcNAc
# Method in brief: (§1)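 Glycan array binding is given as a within-array Z-score, which can be read as non-binding when negative. The arrays, 3228 of them, came from the Consortium for Functional Glycomics database and were retained only where the protein sequence was available. Z-scores were averaged across arrays of the same protein sequence at different concentrations or buffers and across linkers.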
# [2] = target: GlcNAc(a1-4)Gal(b1-4)GalNAc
# Method in brief: as §1
# [3] = target: GlcNAc(a1-4)Gal(b1-4)GlcNAc
# Method in brief: as §1
# [4] = target: GlcNAc(a1-4)Gal(b1-4)GlcNAc(b1-3)Gal(b1-4)Glc
# Method in brief: as §1
# [5] = target: GlcNAc(a1-4)Gal(b1-4)GlcNAc(b1-3)Gal(b1-4)GlcNAc
# Method in brief: as §1
# [6] = target: GlcNAc(a1-4)Gal(b1-4)GlcNAc(b1-3)Gal(b1-4)GlcNAc(b1-3)Gal(b1-4)GlcNAc
# Method in brief: as §1
# [7] = target: GlcNAc(a1-4)Gal(b1-4)GlcNAc(b1-3)Gal(b1-4)[Fuc(a1-3)]GlcNAc(b1-3)Gal(b1-4)[Fuc(a1-3)]GlcNAc
# Method in brief: as §1
# [8] = target: GlcNAc(a1-6)Gal(b1-4)GlcNAc
# Method in brief: as §1
# [9] = target: GlcNAc(b1-2)Gal(b1-3)GalNAc
# Method in brief: as §1
# [10] = target: GlcNAc(b1-2)Man(a1-3)[GlcNAc(b1-2)Man(a1-6)]Man(b1-4)GlcNAc(b1-4)GlcNAc
# Method in brief: as §1
# [11] = target: GlcNAc(b1-2)Man(a1-3)[GlcNAc(b1-2)Man(a1-6)]Man(b1-4)GlcNAc(b1-4)[Fuc(a1-6)]GlcNAc
# Method in brief: as §1
# [12] = target: GlcNAc(b1-2)Man(a1-3)[GlcNAc(b1-4)][GlcNAc(b1-2)Man(a1-6)]Man(b1-4)GlcNAc(b1-4)GlcNAc
# Method in brief: as §1
# [13] = target: GlcNAc(b1-2)Man(a1-3)[GlcNAc(b1-4)][GlcNAc(b1-2)Man(a1-6)]Man(b1-4)GlcNAc(b1-4)[Fuc(a1-6)]GlcNAc
# Method in brief: as §1
# [14] = target: GlcNAc(b1-2)[GlcNAc(b1-4)]Man(a1-3)[GlcNAc(b1-2)Man(a1-6)]Man(b1-4)GlcNAc(b1-4)GlcNAc
# Method in brief: as §1
# [15] = target: GlcNAc(b1-2)[GlcNAc(b1-4)]Man(a1-3)[GlcNAc(b1-4)][GlcNAc(b1-2)Man(a1-6)]Man(b1-4)GlcNAc(b1-4)GlcNAc
# Method in brief: as §1
# [16] = target: GlcNAc(b1-2)[GlcNAc(b1-4)]Man(a1-3)[GlcNAc(b1-4)][GlcNAc(b1-2)[GlcNAc(b1-6)]Man(a1-6)]Man(b1-4)GlcNAc(b1-4)GlcNAc
# Method in brief: as §1
# [17] = target: GlcNAc(b1-2)[GlcNAc(b1-4)]Man(a1-3)[GlcNAc(b1-4)][GlcNAc(b1-2)[GlcNAc(b1-6)]Man(a1-6)]Man(b1-4)GlcNAc(b1-4)[Fuc(a1-6)]GlcNAc
# Method in brief: as §1
# [18] = target: GlcNAc(b1-2)[GlcNAc(b1-6)]Man(a1-6)[GlcNAc(b1-2)Man(a1-3)]Man(b1-4)GlcNAc(b1-4)GlcNAc
# Method in brief: as §1
# [19] = target: GlcNAc(b1-2)[GlcNAc(b1-6)]Man(a1-6)[GlcNAc(b1-2)Man(a1-3)]Man(b1-4)GlcNAc(b1-4)[Fuc(a1-6)]GlcNAc
# Method in brief: as §1
# [20] = target: GlcNAc(b1-2)[GlcNAc(b1-6)]Man(a1-6)[GlcNAc(b1-4)][GlcNAc(b1-2)Man(a1-3)]Man(b1-4)GlcNAc(b1-4)GlcNAc
# Method in brief: as §1
# GlcNAc(b1-3)Fuc = target: GlcNAc(b1-3)Fuc
# Method in brief: as §1
# GlcNAc(b1-3)Gal = target: GlcNAc(b1-3)Gal
# Method in brief: as §1
# [21] = target: GlcNAc(b1-3)Gal(b1-3)GalNAc
# Method in brief: as §1
# GlcNAc(b1-3)Gal(b1-4)Glc = target: GlcNAc(b1-3)Gal(b1-4)Glc
# Method in brief: as §1
# [22] = target: GlcNAc(b1-3)Gal(b1-4)GlcNAc
# Method in brief: as §1
# [23] = target: GlcNAc(b1-3)Gal(b1-4)GlcNAc(b1-2)Man(a1-3)[GlcNAc(b1-3)Gal(b1-4)GlcNAc(b1-2)Man(a1-6)]Man(b1-4)GlcNAc(b1-4)GlcNAc
# Method in brief: as §1
# [24] = target: GlcNAc(b1-3)Gal(b1-4)GlcNAc(b1-2)Man(a1-3)[GlcNAc(b1-3)Gal(b1-4)GlcNAc(b1-2)Man(a1-6)]Man(b1-4)GlcNAc(b1-4)[Fuc(a1-6)]GlcNAc
# Method in brief: as §1
# [25] = target: GlcNAc(b1-3)Gal(b1-4)GlcNAc(b1-2)[GlcNAc(b1-3)Gal(b1-4)GlcNAc(b1-6)]Man(a1-6)[GlcNAc(b1-3)Gal(b1-4)GlcNAc(b1-2)Man(a1-3)]Man(b1-4)GlcNAc(b1-4)GlcNAc
# Method in brief: as §1
# [26] = target: GlcNAc(b1-3)Gal(b1-4)GlcNAc(b1-3)Gal(b1-4)GlcNAc
# Method in brief: as §1
# [27] = target: GlcNAc(b1-3)Gal(b1-4)GlcNAc(b1-3)Gal(b1-4)GlcNAc(b1-2)Man(a1-3)[GlcNAc(b1-3)Gal(b1-4)GlcNAc(b1-3)Gal(b1-4)GlcNAc(b1-2)Man(a1-6)]Man(b1-4)GlcNAc(b1-4)GlcNAc
# Method in brief: as §1
# [28] = target: GlcNAc(b1-3)Gal(b1-4)GlcNAc(b1-3)Gal(b1-4)GlcNAc(b1-2)Man(a1-3)[GlcNAc(b1-3)Gal(b1-4)GlcNAc(b1-3)Gal(b1-4)GlcNAc(b1-2)Man(a1-6)]Man(b1-4)GlcNAc(b1-4)[Fuc(a1-6)]GlcNAc
# Method in brief: as §1
# [29] = target: GlcNAc(b1-3)Gal(b1-4)GlcNAc(b1-3)Gal(b1-4)GlcNAc(b1-2)[GlcNAc(b1-3)Gal(b1-4)GlcNAc(b1-3)Gal(b1-4)GlcNAc(b1-6)]Man(a1-6)[GlcNAc(b1-3)Gal(b1-4)GlcNAc(b1-3)Gal(b1-4)GlcNAc(b1-2)Man(a1-3)]Man(b1-4)GlcNAc(b1-4)[Fuc(a1-6)]GlcNAc
# Method in brief: as §1
# [30] = target: GlcNAc(b1-3)Gal(b1-4)GlcNAc(b1-3)Gal(b1-4)GlcNAc(b1-3)Gal(b1-4)GlcNAc(b1-2)Man(a1-3)[GlcNAc(b1-3)Gal(b1-4)GlcNAc(b1-3)Gal(b1-4)GlcNAc(b1-3)Gal(b1-4)GlcNAc(b1-2)Man(a1-6)]Man(b1-4)GlcNAc(b1-4)GlcNAc
# Method in brief: as §1
# [31] = target: GlcNAc(b1-3)Gal(b1-4)GlcNAc(b1-3)Gal(b1-4)GlcNAc(b1-3)Gal(b1-4)GlcNAc(b1-2)Man(a1-3)[GlcNAc(b1-3)Gal(b1-4)GlcNAc(b1-3)Gal(b1-4)GlcNAc(b1-3)Gal(b1-4)GlcNAc(b1-2)Man(a1-6)]Man(b1-4)GlcNAc(b1-4)[Fuc(a1-6)]GlcNAc
# Method in brief: as §1
# [32] = target: GlcNAc(b1-3)Gal(b1-4)GlcNAc(b1-3)Gal(b1-4)GlcNAc(b1-3)Gal(b1-4)GlcNAc(b1-2)[GlcNAc(b1-3)Gal(b1-4)GlcNAc(b1-3)Gal(b1-4)GlcNAc(b1-3)Gal(b1-4)GlcNAc(b1-6)]Man(a1-6)[GlcNAc(b1-3)Gal(b1-4)GlcNAc(b1-3)Gal(b1-4)GlcNAc(b1-3)Gal(b1-4)GlcNAc(b1-2)Man(a1-3)]Man(b1-4)GlcNAc(b1-4)[Fuc(a1-6)]GlcNAc
# Method in brief: as §1
# [33] = target: GlcNAc(b1-3)Gal(b1-4)GlcNAc(b1-3)Gal(b1-4)GlcNAc(b1-3)Gal(b1-4)GlcNAc(b1-3)Gal(b1-4)GlcNAc(b1-2)Man(a1-3)[GlcNAc(b1-3)Gal(b1-4)GlcNAc(b1-3)Gal(b1-4)GlcNAc(b1-3)Gal(b1-4)GlcNAc(b1-3)Gal(b1-4)GlcNAc(b1-2)Man(a1-6)]Man(b1-4)GlcNAc(b1-4)GlcNAc
# Method in brief: as §1
# [34] = target: GlcNAc(b1-3)Gal(b1-4)GlcNAc(b1-3)Gal(b1-4)GlcNAc(b1-3)Gal(b1-4)GlcNAc(b1-3)Gal(b1-4)GlcNAc(b1-2)Man(a1-3)[GlcNAc(b1-3)Gal(b1-4)GlcNAc(b1-3)Gal(b1-4)GlcNAc(b1-3)Gal(b1-4)GlcNAc(b1-3)Gal(b1-4)GlcNAc(b1-2)Man(a1-6)]Man(b1-4)GlcNAc(b1-4)[Fuc(a1-6)]GlcNAc
# Method in brief: as §1
# [35] = target: GlcNAc(b1-3)Gal(b1-4)GlcNAc(b1-3)Gal(b1-4)GlcNAc(b1-3)Gal(b1-4)GlcNAc(b1-3)Gal(b1-4)GlcNAc(b1-2)[GlcNAc(b1-3)Gal(b1-4)GlcNAc(b1-3)Gal(b1-4)GlcNAc(b1-3)Gal(b1-4)GlcNAc(b1-3)Gal(b1-4)GlcNAc(b1-6)]Man(a1-6)[GlcNAc(b1-3)Gal(b1-4)GlcNAc(b1-3)Gal(b1-4)GlcNAc(b1-3)Gal(b1-4)GlcNAc(b1-3)Gal(b1-4)GlcNAc(b1-2)Man(a1-3)]Man(b1-4)GlcNAc(b1-4)[Fuc(a1-6)]GlcNAc
# Method in brief: as §1
binder,measurement,setting,value
PX9961H-bth-557-24-557 (Bacteroides thetaiotaomicron) (protein) EETRTEVEKKNYMNNAEEAKDVLLGVYRTNTLDAMYGYYLSILFNLGTDISQVEGSGNENFRIIPTNSFPTTQSEVQQTWAALYTGIYRANDFLERISNKIGSYTTTDKKLATLYIAEARALRGMFYFELVRRFGNVVLMTSTQMSNQNPATYVQSAPEKVYEYIEDDLLYACDILPYATDDQYRESNDYRFSKGAALGLLTKVYATWAGYPVKDESKWEAAAKTARILVESGKHGLLKDYEQLWKNTCNGTWDPTESLIEISFYSPTVSGNSDPVGRIGKWNGVKTTAIAGVRGSCAANVKVVHTFVLDWREDVSDIRRDLSIANYQYTDTKKSLWVAGASDTDESAAEKDADPTKAQKNKQNYTPAKWDIQKYVTTNSFINNDKSNVNWYFLRYADVLLLYAEALNEWKHGPDAEAYNAINAVRRRGYGNPSNTSACDLPQGLDETSFREAVRKERSYELSFEGHRRQDLIRWGIYYKTVQATAKELGYWWEGTGSPNYSVATYTEEGKHELFPIPQRDMDLCIQFNQNPKW,glycan array binding signal (z-score),[1],0.11
same,glycan array binding signal (z-score),[2],-0.564
same,glycan array binding signal (z-score),[3],-0.467
same,glycan array binding signal (z-score),[4],-0.546
same,glycan array binding signal (z-score),[5],-0.754
same,glycan array binding signal (z-score),[6],0.118
same,glycan array binding signal (z-score),[7],0.515
same,glycan array binding signal (z-score),[8],-0.217
same,glycan array binding signal (z-score),[9],-0.43
same,glycan array binding signal (z-score),[10],-0.333
same,glycan array binding signal (z-score),[11],-0.372
same,glycan array binding signal (z-score),[12],-0.514
same,glycan array binding signal (z-score),[13],-0.607
same,glycan array binding signal (z-score),[14],-0.18
same,glycan array binding signal (z-score),[15],-0.433
same,glycan array binding signal (z-score),[16],-0.501
same,glycan array binding signal (z-score),[17],-0.257
same,glycan array binding signal (z-score),[18],0.155
same,glycan array binding signal (z-score),[19],-0.401
same,glycan array binding signal (z-score),[20],-0.23
same,glycan array binding signal (z-score),GlcNAc(b1-3)Fuc,-0.184
same,glycan array binding signal (z-score),GlcNAc(b1-3)Gal,0.222
same,glycan array binding signal (z-score),[21],0.164
same,glycan array binding signal (z-score),GlcNAc(b1-3)Gal(b1-4)Glc,-0.404
same,glycan array binding signal (z-score),[22],-0.443
same,glycan array binding signal (z-score),[23],-0.301
same,glycan array binding signal (z-score),[24],-0.359
same,glycan array binding signal (z-score),[25],0.487
same,glycan array binding signal (z-score),[26],-0.278
same,glycan array binding signal (z-score),[27],0.221
same,glycan array binding signal (z-score),[28],0.558
same,glycan array binding signal (z-score),[29],-0.231
same,glycan array binding signal (z-score),[30],-0.299
same,glycan array binding signal (z-score),[31],-0.105
same,glycan array binding signal (z-score),[32],-0.177
same,glycan array binding signal (z-score),[33],-0.352
same,glycan array binding signal (z-score),[34],-0.077
same,glycan array binding signal (z-score),[35],0.101

# Reference: the supplement of paper PMC8728848
